Reference: PubChem BioAssay AID1634 (National Center for Advancing Translational Sciences (NCATS), 2009)
In all, about 260,000 compounds went through this assay and about 150 (0.058%) were called active. The inconclusive results got no clear call from the source; some entries with a clear call stand among them for comparison. Calls follow the shape of the dose curve; as a rule, active = well fitted inhibition curve with a large enough effect; inconclusive = small, poorly fitted or top-dose-only effect; inactive = no such curve, though single readings can be large or run the other way. Potencies of inconclusive entries are left out as doubtful fits.

Molecular target: Pyruvate kinase PKM (Homo sapiens) (UniProt P14618)
Experiment: qHTS Assay for Inhibitors of Human Muscle isoform 2 Pyruvate Kinase; also: nearly all actives have a fitted effect of over 60% in size;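 as to activity change, negative = inhibition: plate controls were uninhibited enzyme wells for no effect and no-enzyme wells for full effect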
Conditions: purified PKM2, ATP generation, Kinase-Glo luminescence; series mostly up to 57.5 µM; activity change, negative = inhibition: at the top concentration
In short: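 Enzyme run at intermediate activity with final 0.1 mM ADP, 0.5 mM PEP (50 mM imidazole pH7.2, 50 mM KCl, 7 mM MgCl2), incubated 1 h at r.t. ATP formed read by Kinase-Glo luminescence, normalized to no-enzyme (full inhibition) and uninhibited wells.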
Potency is read from the fitted curve at half-maximal effect; tags tell the direction and shape of the fitted curve.

Sequence of UniProt P14618 (P14618 whole entry, looked up, canonical isoform): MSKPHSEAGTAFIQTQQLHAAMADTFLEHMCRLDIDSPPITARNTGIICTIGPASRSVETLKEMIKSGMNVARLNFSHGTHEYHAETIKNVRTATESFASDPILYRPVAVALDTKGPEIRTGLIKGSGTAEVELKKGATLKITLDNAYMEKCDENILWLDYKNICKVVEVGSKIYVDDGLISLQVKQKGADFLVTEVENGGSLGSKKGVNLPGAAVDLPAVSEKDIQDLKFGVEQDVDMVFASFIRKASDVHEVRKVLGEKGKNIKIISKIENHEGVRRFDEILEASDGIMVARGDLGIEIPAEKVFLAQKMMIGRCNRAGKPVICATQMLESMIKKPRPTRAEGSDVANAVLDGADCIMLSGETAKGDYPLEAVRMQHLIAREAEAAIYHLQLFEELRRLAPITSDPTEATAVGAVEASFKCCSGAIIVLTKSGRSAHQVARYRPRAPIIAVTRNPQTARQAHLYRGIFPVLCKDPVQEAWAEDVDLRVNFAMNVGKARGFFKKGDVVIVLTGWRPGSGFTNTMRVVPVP

Row | SMILES | activity change, negative = inhibition | Potency
1 | O=S(=O)(c1cccc2nsnc12)N1CCc2ccccc21 | inactive: 49.1% | –
2 | Cc1nc2cc(NS(=O)(=O)c3cccc4cccnc34)ccc2s1 | inactive: 30.9% | –
3 | Cc1occc1C(=O)O/N=C(\N)c1ccccc1 | – | active: 7.08 µM
4 | O=C(/C=C/c1ccco1)N1CCc2ccccc21 | – | inconclusive [falling, partial curve]
5 | COc1ccc2c(c1OC)C(=O)OC2N1C(=O)CC[C@H]1C(=O)Nc1ccc(F)cc1F (some centres undefined) | inactive: -5.15% | –
6 | O=C(c1ccc(-c2nc3ccccc3s2)s1)N1CCOCC1 | – | inconclusive [falling, single point]
7 | COc1ccc(/C=N/Nc2nncc3ccccc23)cc1 | – | inconclusive [falling, single point]
8 | O=C(NCc1cccs1)c1cc2ccccc2o1 | inactive: -0.281% | –
9 | C/C=C/C=C\C(=O)Nc1cccc(C2=NOC3(C2)C[C@H](C(N)=O)N(C(=O)/C=C/C)C3)c1 (some centres undefined) | inactive: 41.7% | –
10 | Cc1nc(Nc2nc3ccccc3o2)nc(C)c1C | – | inconclusive [falling, single point]
11 | Cc1ccccc1Nc1nc(N)c2ccccc2n1 | – | inconclusive [falling, single point]
12 | Cc1cc(N(CCO)CCO)ccc1C(c1ccc(N(CCO)CCO)cc1C)c1ccccc1Cl | inactive: 32.3% | –
13 | CCS(=O)(=O)Nc1ccc(C2=NN(C(C)=O)C(c3cccs3)C2)cc1 (centres undefined) | inactive: 97.2% | –
14 | COc1ccccc1/C=C(/C#N)C(=O)O | – | inconclusive [falling, single point]
15 | Cc1c(C(=O)OCC[N+]2(C)CCCCC2)oc2ccccc12 | inactive: 107% | –
16 | CC(=O)c1c(C)[nH]c(C(=O)Nc2ccc(Cl)c(S(=O)(=O)N(C)C)c2)c1C | inactive: 59.6% | –
17 | CCOc1ccc2nc(S(N)(=O)=O)sc2c1 | inactive: 42.8% | –
18 | O=C(Nc1ccccn1)C(=O)Nc1ccccn1 | – | inconclusive [falling, partial curve]
19 | Cc1cccc(/C(N)=N/OC(=O)c2ccncc2)c1 | – | inconclusive [falling, partial curve]
20 | Cc1ccc(C(=O)Nc2ncc3c(Cl)cccc3n2)cc1 | – | inconclusive [falling, partial curve]
21 | Cc1ccc(NC(=O)CSc2nc3ccccc3nc2N2CCCC2)cc1 | inactive: 60.8% | –
22 | Cc1ccc(C2(CCNCc3ccc(N(C)C)cc3)CCOC(C(C)C)C2)cc1 (centres undefined) | – | inconclusive [falling, single point]
23 | O=C1NC(=S)S/C1=C1\Sc2ccccc2N1CCCS(=O)(=O)O | – | active: 11.2 µM
24 | O=C(CSc1nc2ccc(Cl)cc2[nH]1)N1CCN(C(=O)c2ccco2)CC1 | inactive: 35.8% | –
